Reference: US20130165489A1, “Small Molecule Modulators of HIV-1 Capsid Stability and Methods Thereof” (The Trustees of the University of Pennsylvania, priority 2010, published 2013)

Experiments:
[1] = system: HIV-1 pseudotyped with the envelope glycoprotein from murine leukemia virus; assay: Single-round infection assay, HIV-1 pseudotyped with A-MLV envelope
Description: Using the Effectene transfection reagent (Qiagen), 293T human embryonic kidney cells were cotransfected with plasmids expressing the pCMVΔP1ΔenvpA HIV-1 Gag-Pol packaging construct, the wild-type or mutant HIV-1YU2 envelope glycoproteins or the envelope glycoproteins of the control amphotropic murine leukemia virus (A-MLV), and the firefly luciferase-expressing vector at a DNA ratio of 1:1:3 μg. For the production of viruses pseudotyped with the A-MLV glycoprotein, a rev-expressing plasmid was added. The single-round, replication-defective viruses in the supernatants were harvested 24-30 hours after transfection, filtered (0.45 μm), aliquoted, and frozen at −80° C. until further use. The reverse transcriptase (RT) activities of all viruses were measured as described previously (Rho et al., 1981, Virology 112:355-60). […]
The HSB method (Kortagere et al., 2009, Pharm. Res. 26:1001-11; Kortagere et al., 2010, Environ. Health Perspect. 118(10):1412-17; Kortagere et al., 2006, J. Comput. Aided Mol. Des. 20:789-802; Kortagere et al., 2010, J. Chem. Inf. Model 50:840-49 and Peng et al., 2009, Bioorg. Med. Chem. 17:6442-50) was used to design small-molecule inhibitors targeted to the NTD-NTD hexameric interface of HIV-1 CA. […] The docked complexes are then scored based on a number of physicochemical parameters to indicate high-ranking molecules. […]

[2] = system: recombinant luciferase-containing HIV-1 viruses (HIV-1NL4-3 backbone) pseudotyped with the envelope protein from HIV-1HxBc2; assay: Single-round infection assay, infection of U87 CD4-CXCR4 target cells in presence of compound
Excerpt: A single-round infection assay was used in order to determine whether the compounds identified by the HSB method affected early events (such as uncoating) or late events (such as assembly) or both. Details of the experimental procedure have been published (Rossi et al., Retrovirology 2008, 5:89; Cocklin et al., J. Virol. 2007, 81(7):3645-3648; Martin-Garcia et al., 2006, Virology 2006, 346(1):169-179; Martin-Garcia et al., 2005, J. Virol. 2005, 79(11):6703-6713).
Effects on assembly were identified by incubating the viral producer cells in the presence of the compound. Supernatants containing virus (that encodes for firefly luciferase as a reporter gene) were then diluted 10-fold and used to infect the target cells (U87 CD4-CXCR4). Compound-induced aberrant assembly was then manifested as a decrease in infectivity of the target cells, as compared to those infected with virus from untreated cells. Similarly, uncoating effects could be determined by producing virus in the absence of compound, then infecting target cells in the presence of compounds (U87 CD4-CXCR4).

[3] = system: target cells (U87 CD4-CXCR4); assay: LDH release cytotoxicity, target cells; assay type: cell-based
Excerpt: Moreover, these compounds appeared to be working at different stages of the viral life-cycle—one at an early post-entry event (CMPD-A) and the other at an assembly or post-integration event in HIV-1 replication (CMPD-D).

[4] = Description: From this initial screen, one compound 4,4′-[dibenzo[b,d]furan-2,8-diylbis(5-phenyl-1H-imidazole-4,2-diyl)]dibenzoic acid, referred to as CMPD-A, was identified as having anti-HIV activity of 33.3±0.31 μM on the infection of recombinant luciferase-containing HIV-1 viruses (HIV-1NL4-3 backbone) pseudotyped with the envelope protein from HIV-1YU-2. […] Although production of pseudovirions by transfection and the ability to analyze inhibition in a single-round infection are advantageous for addressing the inhibitory effect of a given compound, this type of assay cannot address the effects of multiple rounds of infection and cell-to-cell spread on the efficacy of the test compounds. CMPD-A was evaluated for inhibition of replication of fully infections virus (FIG. 8B). The compound was assessed against fully infectious HIV-1IIIB replicating in the P4-R5 MAGI cell line. […] The P4-R5 MAGI cell line is a HeLa derivative and is therefore not a natural target cell type, only being able to support infection by HIV-1 by overexpression of CD4, CXCR4 and CCR5. Moreover, HIV-1IIIB is a laboratory adapted virus, having been multiply passaged in culture, and lacks some of the accessory proteins. CMPD-A was evaluated for inhibition of a primary isolate, HIV-192BR030, replicating in primary PBMCs (FIG. 8C).

| SMILES | inhibition of A-MLV envelope pseudotyped HIV-1 [1] | antiretroviral activity, early post-entry event [2] | LDH release versus untreated cells [3] | availability and stability in the media [4] |
| --- | --- | --- | --- | --- |
| O=C(O)c1ccc(-c2nc(-c3ccc4oc5ccc(-c6nc(-c7ccc(C(=O)O)cc7)[nH]c6-c6ccccc6)cc5c4c3)c(-c3ccccc3)[nH]2)cc1 [CMPD-A, 4,4′-(4,4′-(dibenzo[b,d]furan-2,8-diyl)bis(5-phenyl-1H-imidazole-4,2-diyl))dibenzoic acid] | inhibiting HIV-1 pseudotyped with the envelope glycoprotein from murine leukemia virus | significant antiretroviral activity | Neither CMPD-A nor CMPD-D promoted LDH release | available and stable in the media |
| Cc1ccc(C(C(=O)NC2CCCCC2)N(Cc2ccccc2Cl)C(=O)c2snc(C(=O)NC3CCCCC3)c2N)o1 (centres unmarked) [CMPD-D, 4-amino-N5-(2-chlorobenzyl)-N3-cyclohexyl-N5-(2-(cyclohexylamino)-1-(5-methylfuran-2-yl)-2-oxoethyl)isothiazole-3,5-dicarboxamide] | – | – | Neither CMPD-A nor CMPD-D promoted LDH release | – |
